# Hit rate of the full screen: of about 390,000 compounds, about 2,200 (0.56%) were called active. Inconclusive means that the source gave no clear call. Such entries were picked first, then a sample of the others. Calls follow the shape of the dose curve; as a rule, active = well fitted inhibition curve with a large enough effect; inconclusive = small, poorly fitted or top-dose-only effect; inactive = no such curve, though single readings can be large or run the other way. Potencies of inconclusive entries are doubtful fits and often do not repeat.
# Molecular target: Chromobox protein homolog 1 (Homo sapiens) (UniProt P83916)
# Assay: HTS for Inhibitors of HP1-beta Chromodomain Interactions with Methylated Histone Tails; also: nearly all actives have a fitted effect of over 70% in size
# Settings: AlphaScreen HP1-beta / biotin-H3K9me3 peptide binding; series mostly up to 114 µM
# Outline: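 Compound inhibition of the preformed complex between 50 nM HP1-beta and 50 nM biotinylated H3K9me3 peptide was read by AlphaScreen. Buffer was PBS pH 7.4 with 0.01% Tween-20. Incubations ran 30 min at room temperature, with 10 ug/mL donor/acceptor beads.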
# Potency is read from the fitted curve at half-maximal effect; tags tell the direction and shape of the fitted curve.
# Sequence of UniProt P83916 (P83916 whole entry, looked up): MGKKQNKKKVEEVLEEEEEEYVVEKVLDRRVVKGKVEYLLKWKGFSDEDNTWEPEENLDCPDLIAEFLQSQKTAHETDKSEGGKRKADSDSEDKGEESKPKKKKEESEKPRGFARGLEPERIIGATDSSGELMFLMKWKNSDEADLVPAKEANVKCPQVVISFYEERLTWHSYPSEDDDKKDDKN
row,Compound,Potency
1,O=C(CSc1nnc(COc2ccccc2Cl)o1)NC(=O)NCc1ccco1,"inconclusive: 50.1 µM [inhibitor, partial curve, poor fit]"
2,CN(C(=O)COC(=O)c1cc(-c2ccco2)nc2ccccc12)C1CCS(=O)(=O)C1 (centres undefined),"inconclusive: 44.7 µM [inhibitor, partial curve]"
3,Cc1[nH]n(C(N)=S)c(=O)c1N=Nc1ccc(S(=O)(=O)N2CCCCCC2)cc1,"inconclusive: 20 µM [inhibitor, full curve]"
4,Cc1noc(NS(=O)(=O)c2ccc(NS(=O)(=O)c3ccc(Cl)cc3)cc2)c1C,inactive
5,CCOc1ccc(NS(=O)(=O)c2ccc(C)c(C(=O)NCCCn3ccnc3)c2)cc1,inactive
6,O=C(CN1CCOCC1)Nc1c2c(nc3ccccc13)N(Cc1ccccc1)CC2,"inconclusive: 25.1 µM [inhibitor, full curve, poor fit]"
7,Cc1ccc(-c2cnc(NCc3cc4c(cc3[N+](=O)[O-])OCO4)n2C)cc1C,"inconclusive: 14.1 µM [inhibitor, full curve]"
8,Cc1c(-c2ccc(F)cc2)nc(N)c(C#N)c1-c1cccnc1,inactive
9,Nc1ccccc1Nc1cc(-c2ccccc2)nn1-c1ccccc1,"inconclusive: 17.8 µM [inhibitor, full curve]"
10,CN(C1=C(N2CCCCC2)C(=O)c2ccccc2C1=O)c1ccccc1,"inconclusive: 3.16 µM [inhibitor, full curve, poor fit]"
11,Cc1n[nH]c(C)c1NC(=O)CN1CCN(S(=O)(=O)c2ccc(C(F)(F)F)cc2)CC1,"inconclusive: 12.6 µM [inhibitor, full curve, poor fit]"
12,O=C(NCCc1ccc(Cl)cc1)c1ccc(CSCc2ccccc2Cl)o1,inactive
13,CC(C)Oc1cccc(C(=O)C2CCCN(Cc3cccn3-c3cccnc3)C2)c1 (centres undefined),"inconclusive: 50.1 µM [inhibitor, partial curve]"
14,OCCN1CCN(C(=S)c2ccc(Cl)c(Cl)c2)CC1,"inconclusive: 17.8 µM [inhibitor, full curve, poor fit]"
15,CCOc1ccc(NC2c3ccccc3C(=O)N2Cc2ccco2)cc1 (centres undefined),"inconclusive: 44.7 µM [inhibitor, partial curve]"
16,CCN(CC)c1ccc(/C=N/Nc2nc(C)cc(C)n2)c(O)c1,"inconclusive: 44.7 µM [inhibitor, partial curve]"
17,Nc1cc(=O)nc(SCC(=O)Nc2ccc(F)cc2)n1-c1ccc(Cl)cc1,inactive
18,CCCC(=O)Nc1c2c(nn1-c1ccc(C)cc1C)CSC2,inactive
19,Cc1ccc(C)n1-c1sccc1C(=O)O,"inconclusive: 2 µM [inhibitor, full curve, poor fit]"

# Source: PubChem BioAssay AID540317 (National Center for Advancing Translational Sciences (NCATS), 2011)
